Out of some 410,000 compounds screened, about 5,000 (1.2%) were called active. Inconclusive results, whose numbers are uncertain, are shown with a selection of clear calls. The call rests on the fitted dose curve; in most records, active means well fitted inhibition curve with a large enough effect; inconclusive means small, poorly fitted or top-dose-only effect; inactive means no such curve, though single readings can be large or run the other way. Potencies of inconclusive entries are doubtful fits and often do not repeat.
Test: qHTS for Inhibitors of TGF-b; further: nearly all actives have a fitted effect of over 65% in size
Conditions: HepG2 CAGA-GFP TGF-b/SMAD3 reporter, GFP fluorescence, 18 h, TGF-beta stimulated, 500 pg/mL final; series mostly up to 46.1 µM
Procedure, shortened: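 TGF-beta reporter screen: HEPG2 CAGA-GFP, 1% FBS, 500 pg/mL TGF-beta final, 18 h; per-cell GFP summed per well; curves fitted and categorized by class.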
Potency means the concentration at half of the fitted maximal effect; tags describe the fitted curve by direction and shape.

| SMILES | Potency |
| --- | --- |
| Cc1ccc(NC(=S)NCC2CCCO2)c(OC(F)F)c1 (configuration not stated) | inconclusive: 35.5 µM [inhibitor, single point] |
| CCN(CC(=O)Nc1ccc(NC(C)=O)cc1)C(=O)c1ccc(COc2ccc(C(C)(C)C)cc2)cc1 | inconclusive: 12.6 µM [inhibitor, partial curve, poor fit] |
| Cc1cc(C)c2nc(N3CCCC(C(=O)NCc4ccccc4F)C3)sc2c1 (configuration not stated) | inconclusive: 12.6 µM [inhibitor, single point] |
| O=C(CNc1cccc(Br)c1)Nc1ccc(S(=O)(=O)N2CCCCC2)cc1 | inconclusive: 35.5 µM [inhibitor, single point] |
| O=Cc1ccc(/C=C2\C=Cc3ccccc32)cc1 | active: 3.55 µM |
| COc1ccc(C)cc1NC(=O)C(=O)NCC(c1cccnc1)N1CCN(c2ccccc2F)CC1 (configuration not stated) | inconclusive: 35.5 µM [inhibitor, single point] |
| CC(C)Cc1ccc(-c2cc3nc(NCc4cccc(Cl)c4)ccn3n2)cc1 | inconclusive: 35.5 µM [inhibitor, single point] |
| O=C(c1cc2nc(-c3cccs3)cc(C(F)(F)F)n2n1)N1CCCc2ccccc21 | inactive |
| COc1ccccc1N1CCN(C(=O)c2ccc(CN3CCOCC3)cc2)CC1 | inconclusive: 0.126 µM [inhibitor, full curve, poor fit] |
| C[C@@H]1NS(=O)(=O)[C@H]2C[C@@H]3C=C[C@]2(O3)[C@H]1OC(=O)Nc1ccc(C(F)(F)F)cc1[N+](=O)[O-] | inconclusive: 35.5 µM [inhibitor, single point] |
| CN1C(=O)/C(=C/c2ccccc2OCc2cccc(F)c2)N(C)C1=S | inconclusive: 0.562 µM [inhibitor, partial curve, poor fit] |
| COc1ccc(/C=N/NC(=O)c2ccccc2Cl)cc1CSc1nc2ccccc2s1 | inactive |
| CCn1c(CNS(=O)(=O)c2ccc(Br)cc2)n[nH]c1=S | inactive |
| Cc1cc(C)cc(CSc2ccc(S(=O)(=O)N3CCCC3)cn2)c1 | inconclusive: 35.5 µM [inhibitor, single point] |
| O=c1nc2ccccc2c2n1CC(CN1CCN(c3cccc(Cl)c3)CC1)N2 (configuration not stated) | inconclusive: 12.6 µM [inhibitor, partial curve, poor fit] |
| COc1cccc(CNS(=O)(=O)c2ccc3c(c2)CC(C)N3C(=O)C2CCC2)c1 (configuration not stated) | inconclusive: 11.2 µM [inhibitor, single point] |
| CC(=O)C1(O)C(C)CC2C3CCC4CC(O)CCC4(C)C3=CCC21C (configuration not stated) | inconclusive: 1.26 µM [inhibitor, full curve] |
